The data set is described as follows: Half-life determination in NMRI mice. Format: in vivo. As to conditions: for in vivo stability (as judged by compound half-life): NMRI mice, comparison between Molecules A-D; for Terminal Half-life 4 mg/kg i.v.: female NMRI mice, 4 mg/kg single intravenous bolus, serum, ELISA. As for the experimental part: Molecules A-D are each made up of two polypeptides covalently linked by interchain disulfide bonds. The number of glycosites and hinge cysteines (resulting in interchain disulfide bonds between proteins) were tested in order to determine the effect that altering these characteristics has on the half-life of these compounds.
Female NMRI mice were treated with 1.2 mg/kg bw and/or with 4 mg/kg bw of the specified compounds as a single intravenous bolus injection. Whole blood was collected before application (predose), and up to 168 hours after test item administration. Serum was prepared and samples were stored at −80° C. until determination of serum concentrations. Pharmacokinetic parameters were calculated using the mean serum concentrations and the pharmacokinetic evaluation program PK Solutions Version 2.0 for non-compartmental pharmacokinetic data analysis (Summit Research Services, Montrose, Colo.). PK Solutions is an automated, Excel-based application, which computes pharmacokinetic parameters from concentration-time data obtained from analysis of e.g. biological samples following intravenous or extra-vascular routes of administration. PK Solutions calculates results without presuming any specific compartmental model.
Quantitation of the test items in serum was performed with an ELISA-assay detecting the individual TRAIL-receptor agonists shown in Table 7 independent of a Strep-Tag being part of the molecules.

B1: Molecule D: made up of two polypeptides of SEQ ID NO:28; three hinge cysteines, N297S, glycosites on both linkers depleted (protein)
chain: QRVAAHITGTRGRSNTLSSPNSKNEKALGRKINSWESSRSGHSFLSNLHLRNGELVIHEKGFYYIYSQTYFRFQEEIKENTKNDKQMVQYIYKYTSYPDPILLMKSARNSCWSKDAEYGLYSIYQGGIFELKENDRIFVSVTNEHLIDMDHEASFFGAFLVGGSGSGSRVAAHITGTRGRSNTLSSPNSKNEKALGRKINSWESSRSGHSFLSNLHLRNGELVIHEKGFYYIYSQTYFRFQEEIKENTKNDKQMVQYIYKYTSYPDPILLMKSARNSCWSKDAEYGLYSIYQGGIFELKENDRIFVSVTNEHLIDMDHEASFFGAFLVGGSGSGSRVAAHITGTRGRSNTLSSPNSKNEKALGRKINSWESSRSGHSFLSNLHLRNGELVIHEKGFYYIYSQTYFRFQEEIKENTKNDKQMVQYIYKYTSYPDPILLMKSARNSCWSKDAEYGLYSIYQGGIFELKENDRIFVSVTNEHLIDMDHEASFFGAFLVGGPGSSSSSSSG[human IgG1 Fc with N297S (EU numbers) not written out]SSSSSAWSHPQFEK
modifications: homodimer
notes: three hinge cysteines, N297S, glycosites on both linkers depleted
B1: the “in vivo stability (as judged by compound half-life)” value was “reduced in vivo stability” and the “Terminal Half-life 4 mg/kg i.v.” value came out at 8.81 h.

B2: Molecule C: made up of two polypeptides of SEQ ID NO: 27; three hinge cysteines, N297S, glycosite at position 168 but not 337 (protein)
chain: QRVAAHITGTRGRSNTLSSPNSKNEKALGRKINSWESSRSGHSFLSNLHLRNGELVIHEKGFYYIYSQTYFRFQEEIKENTKNDKQMVQYIYKYTSYPDPILLMKSARNSCWSKDAEYGLYSIYQGGIFELKENDRIFVSVTNEHLIDMDHEASFFGAFLVGGSGSGNGSRVAAHITGTRGRSNTLSSPNSKNEKALGRKINSWESSRSGHSFLSNLHLRNGELVIHEKGFYYIYSQTYFRFQEEIKENTKNDKQMVQYIYKYTSYPDPILLMKSARNSCWSKDAEYGLYSIYQGGIFELKENDRIFVSVTNEHLIDMDHEASFFGAFLVGGSGSRVAAHITGTRGRSNTLSSPNSKNEKALGRKINSWESSRSGHSFLSNLHLRNGELVIHEKGFYYIYSQTYFRFQEEIKENTKNDKQMVQYIYKYTSYPDPILLMKSARNSCWSKDAEYGLYSIYQGGIFELKENDRIFVSVTNEHLIDMDHEASFFGAFLVGGPGSSSSSSSG[human IgG1 Fc with N297S (EU numbers) not written out]SSSSSAWSHPQFEK
modifications: homodimer
For B2, the “in vivo stability (as judged by compound half-life)” value was “intermediate in vivo stability when compared to Molecules B and D”; the “Terminal Half-life 4 mg/kg i.v.” value worked out at 21.03 h.
